# Measured values from PubChem BioAssay AID485297 (National Center for Advancing Translational Sciences (NCATS), 2010).
# About 9,100 (2.8%) of roughly 320,000 compounds were called active. Inconclusive results, whose numbers are uncertain, are shown with a selection of clear calls. The call rests on the fitted dose curve; in most records, active means well fitted activation curve with a large enough effect; inconclusive means small, poorly fitted or top-dose-only effect; inactive means no such curve, though single readings can be large or run the other way. Potencies of inconclusive entries are left out as doubtful fits.
# Experiment: qHTS Assay for Rab9 Promoter Activators; further: nearly all actives have a fitted effect of over 60% in size; on activation, negative = inhibition: % of control where 0% means no effect
# Settings: Huh7 Rab9 promoter-luciferase reporter, luminescence, 24 h; series mostly up to 9.22 µM; activation, negative = inhibition: at the top concentration
# How it was run: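 Quantitative HTS format; Huh7 Rab9-luciferase reporter cells (1500/well) receive compound 2 h post-plating, incubate 24 h at 37 °C, then get luciferase reagent for 10 min before luminescence reading.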
# Potency means the concentration at half of the fitted maximal effect; tags describe the fitted curve by direction and shape.
SMILES,Potency,"activation, negative = inhibition"
C=CCN(CC=C)C(=O)CCc1nnc(CCc2c[nH]c3ccccc23)o1,"inconclusive [activator, single point]",
CC(C)Oc1cccc(NC(=O)c2cnccc2C(F)(F)F)c1,,inactive: -4.13%
O=C(Nc1cccc(-c2ccc(N3CCOCC3)nn2)c1)c1ccc(Cl)cc1,"inconclusive [activator, partial curve]",
O=C1N(c2ccccc2C(F)(F)F)O[C@]1(c1ccccc1)C1CCCC1,,inactive: -8.29%
COc1ccc(C2=NN(S(C)(=O)=O)C(c3ccc4nccnc4c3)C2)cc1 (configuration not stated),"inconclusive [activator, single point]",
CCCN1C(=O)c2cc(C(=O)NC3CCCCCC3)ccc2C1O (configuration not stated),active: 2.24 µM,
COc1ccc2nc(N3C(=O)/C(=C/c4ccc(Cl)cc4)NC3=S)sc2c1,,inactive: 1.9%
COc1ccc(NC(=O)CCSc2nnnn2C)cc1,"inconclusive [activator, partial curve]",
O=c1c2ccccc2nnn1CSc1nnnn1-c1ccccc1,"inconclusive [activator, partial curve]",
c1cnc2ccc(-c3ccc4ncccc4c3)cc2c1,active: 0.447 µM,
Cc1ccc(-c2cc(C(=O)N3CCN(c4ccccc4O)CC3)c3ccccc3n2)cc1,"inconclusive [activator, partial curve]",
COc1ccc(/[N+]([O-])=C/c2ccco2)cc1,"inconclusive [activator, partial curve]",
O=C(OCC#CCSc1nnc(-c2cccc3ccccc23)o1)c1cc2ccccc2o1,,inactive: 4.25%
CC(C)CNC(=O)C1CCN(Cc2ccc(OCc3ccccc3)cc2)CC1,"inconclusive [activator, partial curve, poor fit]",
CN=c1c([N+](=O)[O-])nn(-c2ccc3c(c2)OCCO3)n1O,"inconclusive [activator, partial curve]",
CC(=O)c1ccc(NC(=O)c2cc(Cl)sc2Cl)cc1,active: 2.24 µM,
Nc1scc(-c2ccncc2)c1Cl,"inconclusive [activator, partial curve]",
CCN(C(C)=O)c1nnc(CSc2nc3ccccc3s2)s1,"inconclusive [activator, single point]",
CC(C)c1ccc(/C=N/N2CCCCC2)cc1,active: 3.16 µM,
Cc1ccc(C(=O)Nc2ccc(Nc3ccccc3)cc2)c(Cl)c1,,inactive: 6.81%
O=C(COc1ccccc1)Nc1ccc(Cl)cc1Cl,active: 2.24 µM,

SMILES,Potency,"activation, negative = inhibition"
COc1ccc(N=Cc2c(O)[nH]c3ccccc23)cc1OC,"inconclusive [activator, single point]",
Cc1ccc(-n2nc3c(n2)/C(=N/O)CC/C3=N\O)cc1,active: 3.16 µM,
c1ccc2c(c1)CCCN2c1nc(N2CCOCC2)nc(N2CCOCC2)n1,,inactive: -8.38%
CCc1cccc2c(C(=O)COC(=O)c3nccnc3N)c[nH]c12,"inconclusive [activator, single point]",
CCC1CCCCN1CCCNC(=O)Cn1nc(C)n2nc(-c3ccccc3)cc2c1=O (configuration not stated),,inactive: -3.97%
CCc1ccc(C(=O)COC(=O)CNC(=O)Cc2ccccc2)cc1,,inactive: 0.921%
COc1ccc(CNC(=O)C2COc3ccccc3O2)cc1 (configuration not stated),"inconclusive [activator, partial curve]",
CCCCOc1ccc(C(=O)NN2C(=O)NC3(CCCCC3)C2=O)cc1OC,,inactive: -3.15%
Cc1cc(=O)oc2cc(OCCc3ccccc3)ccc12,"inconclusive [activator, single point]",
CC(=O)Nc1nc(-c2ccc(Cl)cc2)ns1,active: 3.98 µM,
O=C(Nc1ccc2c(c1)OCCO2)c1ccccc1F,active: 0.562 µM,
CC1(C)CC(=O)C(CC(=O)NC(=O)NCc2ccccc2)=C(O)C1,,inactive: -2.85%
CC1CC(C)(C)NC(=S)N1CCCC(=O)Nc1ccc2c(c1)OCCO2 (configuration not stated),"inconclusive [activator, partial curve]",
S=C(NCCc1ccccn1)NC1CCCCC1,"inconclusive [activator, partial curve]",
Cc1ccc(NC(=O)CN2C(=O)c3ccccc3S2(=O)=O)cc1C,"inconclusive [activator, partial curve]",
O=C(NC(=S)Nc1ccc(CN2CCOCC2)cc1)c1ccco1,"inconclusive [activator, single point]",
CCCNC(=O)c1oc2ccc3c(c2c1C)C(=O)CC(C)(C)O3,active: 1.78 µM,
O=C(Nc1cccc(Cl)c1N1CCCC1)c1cccc(-c2cc3ccccc3oc2=O)c1,"inconclusive [activator, single point]",
Cc1cc(C)n(-c2cc(N3CCOCC3)nc(-c3ccccc3)n2)n1,,inactive: -4.07%
CCOC(=O)Nc1ccc2c(C)cc(=O)oc2c1,"inconclusive [activator, single point]",
N#Cc1nc(-c2ccccc2)oc1NCC1CCCO1 (configuration not stated),,inactive: -0.827%

SMILES,Potency,"activation, negative = inhibition"
O=C(Nc1ccc(Cl)cn1)C1CC1,,inactive: -7.4%
O=C(O)c1cccc(CSc2nnc(Cc3ccccc3)o2)c1,"inconclusive [activator, partial curve]",
C(=N\Nc1nc2ccccc2[nH]1)/c1ccc2c(c1)OCCO2,active: 1.41 µM,
O=C(c1ccco1)N1CCN(Cc2c(F)cccc2Cl)CC1,"inconclusive [activator, partial curve]",
C=CCn1c(NC(=O)c2ccccc2)nc2ccccc21,"inconclusive [activator, partial curve]",
O=C(CSc1ncn[nH]1)c1cc2ccccc2o1,,inactive: 19.2%
C#Cc1ccc(CN2CCCC(C(=O)Nc3ccccc3Oc3cccnc3)C2)cc1 (configuration not stated),,inactive: -4.26%
Cc1cc(C(=O)N/N=C/c2c(C)nn(-c3ccccc3)c2C)c(C)o1,"inconclusive [activator, partial curve]",
O=C(COc1ccc(Br)cc1Br)NC(=S)Nc1cccc(CO)c1,active: 0.447 µM,
COC(=O)c1ccccc1NC(=O)Nc1ccc2c(c1)OCO2,,inactive: 26.3%
CC(=O)Oc1cccc(C(=O)Nc2ccc(NC(=O)c3cccs3)cc2)c1,"inconclusive [activator, single point]",
COc1cc(/C=N\NC(=O)Cn2nnc3ccccc32)cc(OC)c1OC,,inactive: -3.07%
O=C1c2ccccc2-c2onc3c(Oc4ccccc4)cc(O)c1c23,,inactive: 0.728%
COc1ccc(NC(=O)c2ccc3c(=O)n4c(nc3c2)CCCCC4)cc1,,inactive: -2.21%
O=C(N/N=C/c1c[nH]c2ccccc12)c1sc2ccccc2c1Cl,"inconclusive [activator, partial curve]",
CCOC(=O)c1ccc(NC(=O)COC)cc1,"inconclusive [activator, single point]",
O=C(Nc1nc(-c2ccccc2)cs1)c1cccs1,active: 3.55 µM,
O=C(Nc1ccccn1)c1ccc(Cl)c(S(=O)(=O)N2CCCCCC2)c1,"inconclusive [activator, single point]",
COc1cc(/C=N/NC(=O)c2ccc(-c3ccccc3)cc2)cc(OC)c1OC,,inactive: 12.6%
Cc1c(C(=O)O/N=C(\N)c2ccccn2)cccc1[N+](=O)[O-],active: 0.794 µM,
C=CC(C)N1C(=O)S/C(=C\c2ccc(N3CCOCC3)cc2C)C1=O (configuration not stated),"inconclusive [activator, partial curve]",

SMILES,Potency,"activation, negative = inhibition"
Cc1ccsc1C(=O)Nc1nc2ccccc2[nH]1,active: 0.355 µM,
Cc1csc(NC(=S)NC(=O)c2ccccc2)n1,"inconclusive [activator, single point]",
Cc1c(C)n(CCc2ccccc2)c2ncnc(NCCCO)c12,active: 1.58 µM,
CCc1ccc(C(=O)NNc2ccccc2F)cc1,"inconclusive [activator, single point]",
COc1ccc(NC(=O)Nc2ccc3nsnc3c2)cc1,"inconclusive [activator, full curve]",
CCOc1nc(Nc2ccc(OC)c(Cl)c2)nc(N2CCN(c3ccc(OC)cc3)CC2)n1,,inactive: -4.1%
CCn1cc(CN2CCC(Oc3ccc(C(=O)N4CCCCC4)cc3)CC2)cn1,,inactive: -1.94%
C/C(=N\NC(=O)c1cnccn1)c1ccc([N+](=O)[O-])cc1,,inactive: 14.5%
C/C(=N\NC(=O)c1c[nH]c2ccccc12)c1ccc(C)s1,"inconclusive [activator, partial curve]",
CCCNC(=O)c1ccc2c(c1)nc(C)n2-c1cccc(Cl)c1,,inactive: 0.748%
O=C(Nc1nc(-c2nc3ccccc3s2)cs1)c1ccco1,"inconclusive [activator, partial curve]",
Cc1nc(NC(=O)C2CCCC2)sc1Cc1ccc2c(c1)OCO2,"inconclusive [activator, single point]",
Cc1cccnc1NC(=O)COc1ccc2c(c1)CCC2,"inconclusive [activator, single point]",
CCC(=O)Nc1nnc(-c2cccs2)s1,"inconclusive [activator, single point]",
Oc1cccc(/C=N\Nc2nncc(-c3ccccc3)n2)c1,"inconclusive [activator, single point]",
Cc1ccc(C)c(SCC(=O)Nc2cccnc2Cl)c1,,inactive: -0.405%
CCOc1ccc(NC(=O)CN(C)C(=O)COc2cccc3c2OC(C)(C)C3)cc1OCC,,inactive: -9.65%
O=c1cc(Cl)[nH]c(=O)n1CCNc1ncc(C(F)(F)F)cc1Cl,active: 3.16 µM,
O=[N+]([O-])c1ccc(N/N=C/c2ccccc2)c(F)c1,"inconclusive [activator, single point]",
